# Measured values as given in the supplement of paper PMC12230231.
# Test system: SIVsab (simian immunodeficiency virus of sabaeus monkeys), single-cycle GFP reporter, in CRFK cells
# Experiment: enrichment among uninfected cells over input (fold); higher = stronger restriction
# Details: library: human / rhesus combinations
# Experimental: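 Pools of CRFK cells expressing variants of the TRIM5α v1 loop were challenged with the single-cycle reporter, sorted by GFP and sequenced; mean of two replicates.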
row,Sequence,enrichment
1,"MASGILVNVKEEVTCPICLELLTQPLSLDCGHSFCQACLTANHKKSMLDKGESSCPVCRISYQPENIRPNRHVANIVEKLREVKLSPEGQKVDHCARHGEKLLLFCQEDGKVICWLCERSQEHRGHHTFLTEEVAREYQVKLQAALEMLRQKQQEAEELEADIREEKASWKTQIQYDKTNVLADFEQLRDILDWEESNELQNLEKEEEDILKSLTNSETEMVQQTQSLRELISDLEHRLQGSVMELLQGVDGVIKRTENVTLKKPETFPKNQRRVFRAPDLKGMLEVFRELTDVRRYWVDVTVAPNNISCAVISEDKRQVSSPKPQIIYGARGTRYTFQSLTNFNYCTGILGSQSITSGKHYWEVDVSKKTAWILGVCAGFQPDAMCNIEKNENYQPKYGYWVIGLEEGVKCSAFQDSSFHTPSVPFIVPLSVIICPDRVGVFLDYEACTVSFFNITNHGFLIYKFSHCSFSQPVFPYLNPRKCGVPMTLCSPSS [human TRIM5α, 330-340 = GARGTRYTFQSLT]",0.182 ± 0.0047
2,"MASGILVNVKEEVTCPICLELLTQPLSLDCGHSFCQACLTANHKKSMLDKGESSCPVCRISYQPENIRPNRHVANIVEKLREVKLSPEGQKVDHCARHGEKLLLFCQEDGKVICWLCERSQEHRGHHTFLTEEVAREYQVKLQAALEMLRQKQQEAEELEADIREEKASWKTQIQYDKTNVLADFEQLRDILDWEESNELQNLEKEEEDILKSLTNSETEMVQQTQSLRELISDLEHRLQGSVMELLQGVDGVIKRTENVTLKKPETFPKNQRRVFRAPDLKGMLEVFRELTDVRRYWVDVTVAPNNISCAVISEDKRQVSSPKPQIIYQAPGTLFTFPSLTNFNYCTGILGSQSITSGKHYWEVDVSKKTAWILGVCAGFQPDAMCNIEKNENYQPKYGYWVIGLEEGVKCSAFQDSSFHTPSVPFIVPLSVIICPDRVGVFLDYEACTVSFFNITNHGFLIYKFSHCSFSQPVFPYLNPRKCGVPMTLCSPSS [human TRIM5α, 330-340 = QAPGTLFTFPSLT]",39.2 ± 11
3,"MASGILVNVKEEVTCPICLELLTQPLSLDCGHSFCQACLTANHKKSMLDKGESSCPVCRISYQPENIRPNRHVANIVEKLREVKLSPEGQKVDHCARHGEKLLLFCQEDGKVICWLCERSQEHRGHHTFLTEEVAREYQVKLQAALEMLRQKQQEAEELEADIREEKASWKTQIQYDKTNVLADFEQLRDILDWEESNELQNLEKEEEDILKSLTNSETEMVQQTQSLRELISDLEHRLQGSVMELLQGVDGVIKRTENVTLKKPETFPKNQRRVFRAPDLKGMLEVFRELTDVRRYWVDVTVAPNNISCAVISEDKRQVSSPKPQIIYQARGTLYPTFVNFNYCTGILGSQSITSGKHYWEVDVSKKTAWILGVCAGFQPDAMCNIEKNENYQPKYGYWVIGLEEGVKCSAFQDSSFHTPSVPFIVPLSVIICPDRVGVFLDYEACTVSFFNITNHGFLIYKFSHCSFSQPVFPYLNPRKCGVPMTLCSPSS [human TRIM5α, 330-340 = QARGTLYPTFV]",0.00562 ± 0.00018
4,"MASGILVNVKEEVTCPICLELLTQPLSLDCGHSFCQACLTANHKKSMLDKGESSCPVCRISYQPENIRPNRHVANIVEKLREVKLSPEGQKVDHCARHGEKLLLFCQEDGKVICWLCERSQEHRGHHTFLTEEVAREYQVKLQAALEMLRQKQQEAEELEADIREEKASWKTQIQYDKTNVLADFEQLRDILDWEESNELQNLEKEEEDILKSLTNSETEMVQQTQSLRELISDLEHRLQGSVMELLQGVDGVIKRTENVTLKKPETFPKNQRRVFRAPDLKGMLEVFRELTDVRRYWVDVTVAPNNISCAVISEDKRQVSSPKPQIIYGARGTLYTFPTFTNFNYCTGILGSQSITSGKHYWEVDVSKKTAWILGVCAGFQPDAMCNIEKNENYQPKYGYWVIGLEEGVKCSAFQDSSFHTPSVPFIVPLSVIICPDRVGVFLDYEACTVSFFNITNHGFLIYKFSHCSFSQPVFPYLNPRKCGVPMTLCSPSS [human TRIM5α, 330-340 = GARGTLYTFPTFT]",0.701 ± 0.99

# Same assay, conditions: library: insertions and deletions
row,Sequence,enrichment
1,"MASGILVNVKEEVTCPICLELLTQPLSLDCGHSFCQACLTANHKKSMLDKGESSCPVCRISYQPENIRPNRHVANIVEKLREVKLSPEGQKVDHCARHGEKLLLFCQEDGKVICWLCERSQEHRGHHTFLTEEVAREYQVKLQAALEMLRQKQQEAEELEADIREEKASWKTQIQYDKTNVLADFEQLRDILDWEESNELQNLEKEEEDILKSLTNSETEMVQQTQSLRELISDLEHRLQGSVMELLQGVDGVIKRTENVTLKKPETFPKNQRRVFRAPDLKGMLEVFRELTDVRRYWVDVTVAPNNISCAVISEDKRQVSSPKPQIIYGARGTYQTFVNFNYCTGILGSQSITSGKHYWEVDVSKKTAWILGVCAGFQPDAMCNIEKNENYQPKYGYWVIGLEEGVKCSAFQDSSFHTPSVPFIVPLSVIICPDRVGVFLDYEACTVSFFNITNHGFLIYKFSHCSFSQPVFPYLNPRKCGVPMTLCSPSS [human TRIM5α, 1-codon deletion at 335]",0.718 ± 0.14
2,"MASGILVNVKEEVTCPICLELLTQPLSLDCGHSFCQACLTANHKKSMLDKGESSCPVCRISYQPENIRPNRHVANIVEKLREVKLSPEGQKVDHCARHGEKLLLFCQEDGKVICWLCERSQEHRGHHTFLTEEVAREYQVKLQAALEMLRQKQQEAEELEADIREEKASWKTQIQYDKTNVLADFEQLRDILDWEESNELQNLEKEEEDILKSLTNSETEMVQQTQSLRELISDLEHRLQGSVMELLQGVDGVIKRTENVTLKKPETFPKNQRRVFRAPDLKGMLEVFRELTDVRRYWVDVTVAPNNISCAVISEDKRQVSSPKPQIPQIIYGARGTRYQTFVNFNYCTGILGSQSITSGKHYWEVDVSKKTAWILGVCAGFQPDAMCNIEKNENYQPKYGYWVIGLEEGVKCSAFQDSSFHTPSVPFIVPLSVIICPDRVGVFLDYEACTVSFFNITNHGFLIYKFSHCSFSQPVFPYLNPRKCGVPMTLCSPSS [human TRIM5α, 3-codon duplication at 325]",0.156 ± 0.06
3,"MASGILVNVKEEVTCPICLELLTQPLSLDCGHSFCQACLTANHKKSMLDKGESSCPVCRISYQPENIRPNRHVANIVEKLREVKLSPEGQKVDHCARHGEKLLLFCQEDGKVICWLCERSQEHRGHHTFLTEEVAREYQVKLQAALEMLRQKQQEAEELEADIREEKASWKTQIQYDKTNVLADFEQLRDILDWEESNELQNLEKEEEDILKSLTNSETEMVQQTQSLRELISDLEHRLQGSVMELLQGVDGVIKRTENVTLKKPETFPKNQRRVFRAPDLKGMLEVFRELTDVRRYWVDVTVAPNNISCAVISEDKRQVSSPKPQIIYGPQIIYGARGTRYQTFVNFNYCTGILGSQSITSGKHYWEVDVSKKTAWILGVCAGFQPDAMCNIEKNENYQPKYGYWVIGLEEGVKCSAFQDSSFHTPSVPFIVPLSVIICPDRVGVFLDYEACTVSFFNITNHGFLIYKFSHCSFSQPVFPYLNPRKCGVPMTLCSPSS [human TRIM5α, 6-codon duplication at 325]",0.355 ± 0.098
4,"MASGILVNVKEEVTCPICLELLTQPLSLDCGHSFCQACLTANHKKSMLDKGESSCPVCRISYQPENIRPNRHVANIVEKLREVKLSPEGQKVDHCARHGEKLLLFCQEDGKVICWLCERSQEHRGHHTFLTEEVAREYQVKLQAALEMLRQKQQEAEELEADIREEKASWKTQIQYDKTNVLADFEQLRDILDWEESNELQNLEKEEEDILKSLTNSETEMVQQTQSLRELISDLEHRLQGSVMELLQGVDGVIKRTENVTLKKPETFPKNQRRVFRAPDLKGMLEVFRELTDVRRYWVDVTVAPNNISCAVISEDKRQVSSPKPQIIYRYQTFVNFNYCTGILGSQSITSGKHYWEVDVSKKTAWILGVCAGFQPDAMCNIEKNENYQPKYGYWVIGLEEGVKCSAFQDSSFHTPSVPFIVPLSVIICPDRVGVFLDYEACTVSFFNITNHGFLIYKFSHCSFSQPVFPYLNPRKCGVPMTLCSPSS [human TRIM5α, 5-codon deletion at 330]",0.825 ± 0.25
5,"MASGILVNVKEEVTCPICLELLTQPLSLDCGHSFCQACLTANHKKSMLDKGESSCPVCRISYQPENIRPNRHVANIVEKLREVKLSPEGQKVDHCARHGEKLLLFCQEDGKVICWLCERSQEHRGHHTFLTEEVAREYQVKLQAALEMLRQKQQEAEELEADIREEKASWKTQIQYDKTNVLADFEQLRDILDWEESNELQNLEKEEEDILKSLTNSETEMVQQTQSLRELISDLEHRLQGSVMELLQGVDGVIKRTENVTLKKPETFPKNQRRVFRAPDLKGMLEVFRELTDVRRYWVDVTVAPNNISCAVISEDKRQVSSPKPQIIYGARGTRYQARGTRYQTFVNFNYCTGILGSQSITSGKHYWEVDVSKKTAWILGVCAGFQPDAMCNIEKNENYQPKYGYWVIGLEEGVKCSAFQDSSFHTPSVPFIVPLSVIICPDRVGVFLDYEACTVSFFNITNHGFLIYKFSHCSFSQPVFPYLNPRKCGVPMTLCSPSS [human TRIM5α, 7-codon duplication at 331]",0.856 ± 0.034
6,"MASGILVNVKEEVTCPICLELLTQPLSLDCGHSFCQACLTANHKKSMLDKGESSCPVCRISYQPENIRPNRHVANIVEKLREVKLSPEGQKVDHCARHGEKLLLFCQEDGKVICWLCERSQEHRGHHTFLTEEVAREYQVKLQAALEMLRQKQQEAEELEADIREEKASWKTQIQYDKTNVLADFEQLRDILDWEESNELQNLEKEEEDILKSLTNSETEMVQQTQSLRELISDLEHRLQGSVMELLQGVDGVIKRTENVTLKKPETFPKNQRRVFRAPDLKGMLEVFRELTDVRRYWVDVTVAPNNISCAVISEDKRQVSSPKPQIIKPQIIYGARGTRYQTFVNFNYCTGILGSQSITSGKHYWEVDVSKKTAWILGVCAGFQPDAMCNIEKNENYQPKYGYWVIGLEEGVKCSAFQDSSFHTPSVPFIVPLSVIICPDRVGVFLDYEACTVSFFNITNHGFLIYKFSHCSFSQPVFPYLNPRKCGVPMTLCSPSS [human TRIM5α, 5-codon duplication at 324]",0.781 ± 0.25
7,"MASGILVNVKEEVTCPICLELLTQPLSLDCGHSFCQACLTANHKKSMLDKGESSCPVCRISYQPENIRPNRHVANIVEKLREVKLSPEGQKVDHCARHGEKLLLFCQEDGKVICWLCERSQEHRGHHTFLTEEVAREYQVKLQAALEMLRQKQQEAEELEADIREEKASWKTQIQYDKTNVLADFEQLRDILDWEESNELQNLEKEEEDILKSLTNSETEMVQQTQSLRELISDLEHRLQGSVMELLQGVDGVIKRTENVTLKKPETFPKNQRRVFRAPDLKGMLEVFRELTDVRRYWVDVTVAPNNISCAVISEDKRQVSSPKPQARGTRYQTFVNFNYCTGILGSQSITSGKHYWEVDVSKKTAWILGVCAGFQPDAMCNIEKNENYQPKYGYWVIGLEEGVKCSAFQDSSFHTPSVPFIVPLSVIICPDRVGVFLDYEACTVSFFNITNHGFLIYKFSHCSFSQPVFPYLNPRKCGVPMTLCSPSS [human TRIM5α, 4-codon deletion at 327]",1.02 ± 0.48
8,"MASGILVNVKEEVTCPICLELLTQPLSLDCGHSFCQACLTANHKKSMLDKGESSCPVCRISYQPENIRPNRHVANIVEKLREVKLSPEGQKVDHCARHGEKLLLFCQEDGKVICWLCERSQEHRGHHTFLTEEVAREYQVKLQAALEMLRQKQQEAEELEADIREEKASWKTQIQYDKTNVLADFEQLRDILDWEESNELQNLEKEEEDILKSLTNSETEMVQQTQSLRELISDLEHRLQGSVMELLQGVDGVIKRTENVTLKKPETFPKNQRRVFRAPDLKGMLEVFRELTDVRRYWVDVTVAPNNISCAVISEDKRQVSSPKPQIIYGARGTRYQTFVNFNYFNYCTGILGSQSITSGKHYWEVDVSKKTAWILGVCAGFQPDAMCNIEKNENYQPKYGYWVIGLEEGVKCSAFQDSSFHTPSVPFIVPLSVIICPDRVGVFLDYEACTVSFFNITNHGFLIYKFSHCSFSQPVFPYLNPRKCGVPMTLCSPSS [human TRIM5α, 3-codon duplication at 342]",0.601 ± 0.53

# ± gives the standard deviation of the averaged measurements. Restriction of a single-cycle SIVsab GFP reporter by TRIM5α v1-loop variants in CRFK cells. Human variants: read share among cells still uninfected after two challenges over input, higher = gained restriction. Rhesus variants: share among infected cells over input, higher = lost restriction. Reporter dose not given per row. No active / inactive call per row; the paper calls a change when both replicates lie above its controls (mean + 2 SD of stop or wild-type variants, or the top frameshift score). Residues outside the varied loop are taken from Swiss-Prot. The paper reads the human single-substitution scores as noise; they and the rhesus combinations repeat poorly (rank correlation 0.3 to 0.4), indel scores repeat only for the top variants, rhesus substitutions well (0.9).
